From PMC4336329 (PLoS ONE, 2015)
In all, about 310,000 compounds went through this assay and about 2,200 (0.71%) showed an effect of 50% or more. The effect is printed as a negative number. Some of the results follow.

Molecular target: human ether-à-go-go-related gene (hERG) potassium channel (human, UniProt Q12809)
Experiment: primary screen, population patch clamp on CHO cells stably expressing hERG

Sequence of human ether-à-go-go-related gene (hERG) potassium channel (Q12809 whole entry, looked up): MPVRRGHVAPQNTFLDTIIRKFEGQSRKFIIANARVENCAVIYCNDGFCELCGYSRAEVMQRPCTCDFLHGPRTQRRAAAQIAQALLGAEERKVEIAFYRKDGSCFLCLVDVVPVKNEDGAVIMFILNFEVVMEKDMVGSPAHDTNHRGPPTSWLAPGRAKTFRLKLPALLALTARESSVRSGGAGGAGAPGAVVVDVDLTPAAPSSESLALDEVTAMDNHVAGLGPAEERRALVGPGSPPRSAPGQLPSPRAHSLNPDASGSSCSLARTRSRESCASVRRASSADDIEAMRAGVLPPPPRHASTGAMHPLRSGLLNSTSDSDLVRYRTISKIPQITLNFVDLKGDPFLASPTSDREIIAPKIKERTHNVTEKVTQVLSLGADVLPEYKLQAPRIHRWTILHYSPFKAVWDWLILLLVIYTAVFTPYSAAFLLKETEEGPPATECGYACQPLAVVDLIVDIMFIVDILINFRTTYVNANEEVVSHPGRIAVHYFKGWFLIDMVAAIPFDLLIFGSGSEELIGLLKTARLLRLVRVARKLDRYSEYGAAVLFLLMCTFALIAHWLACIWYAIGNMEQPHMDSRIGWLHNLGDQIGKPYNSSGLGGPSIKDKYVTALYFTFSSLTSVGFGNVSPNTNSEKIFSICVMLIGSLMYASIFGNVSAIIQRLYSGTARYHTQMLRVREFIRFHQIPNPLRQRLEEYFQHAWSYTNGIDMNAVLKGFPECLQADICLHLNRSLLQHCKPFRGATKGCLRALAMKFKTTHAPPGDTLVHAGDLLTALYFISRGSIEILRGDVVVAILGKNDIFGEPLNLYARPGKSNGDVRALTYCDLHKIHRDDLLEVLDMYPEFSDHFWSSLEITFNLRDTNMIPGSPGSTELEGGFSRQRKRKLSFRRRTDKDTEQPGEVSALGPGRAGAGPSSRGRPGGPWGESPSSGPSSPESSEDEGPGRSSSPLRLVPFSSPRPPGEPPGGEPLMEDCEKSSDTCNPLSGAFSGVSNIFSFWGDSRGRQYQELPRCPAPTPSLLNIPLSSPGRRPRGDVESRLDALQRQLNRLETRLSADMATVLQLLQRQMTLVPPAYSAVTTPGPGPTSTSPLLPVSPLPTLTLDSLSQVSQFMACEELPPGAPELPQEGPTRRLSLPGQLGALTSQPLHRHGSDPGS

SMILES | hERG current change (%, negative = inhibition) at 1uM [%]
CN1CCC2(CC1)N=C(c1ccc(F)cc1)C(=S)N2C(=O)c1ccc(C(C)(C)C)cc1 | 7.39
Cc1ccc(-n2c(SCC(=O)NCCC3=CCCCC3)nc3n[nH]c(C)c3c2=N)cc1Cl | -7.1
CCN(CC(=O)NC1CCS(=O)(=O)C1)C(=O)/C=C/c1cccs1 (stereo not drawn) | 24.8
COc1cccc(OCCNC(=O)c2ccc(C)cc2)c1 | 9
C/C(CCc1oc2ccc(Br)cc2c1-c1ccc(C)o1)=N/O | 7
CCC(C)[C@H]1CNCCN1CCc1cccc2ccccc12 (stereo partly drawn) | 12.6
CCCn1nnnc1SCC(=O)N1C(C)CCCC1C (stereo not drawn) | 19.3
O=C(c1ccc2c(c1)N(Cc1ccccc1)CCS2)N1CCC2(CC1)OCCO2 | 0.257
COc1ccc(CC2(C)OC(c3ccc(C)cc3)=NN2C(C)=O)cc1 (stereo not drawn) | 4.85
Cc1cc(C)nc(/N=C(\N)Nc2ccc(CC(=O)OC(C)C)cc2)n1 | -18.7
COC(=O)CSc1ncc(S(=O)(=O)c2ccccc2)c(=O)[nH]1 | 16.7
CC(OC(=O)CCCN=C1NS(=O)(=O)c2ccccc21)C(=O)c1ccccc1 (stereo not drawn) | 2.12
Cc1ccc(C)c(N2CCN(c3nnnn3-c3ccccc3)CC2)c1 | 13.4
O=C(NN=C1CCN(Cc2ccccc2)CC1)c1ccccc1O | 14.4
COc1ccc(C(=O)CC(c2ccccc2)C2C(=O)CCCC2=O)cc1 (stereo not drawn) | 13.4
COC(=O)CSc1nnc(CNC(=O)c2ccco2)n1-c1ccc(F)cc1 | -2.52
COc1ccc(C(=O)Nc2ccc(NC(=O)c3cccs3)cn2)cc1 | 11.7
O=C(O)CCC(=O)Nc1ccc(Oc2ncnc3cc(Cl)ccc23)nc1 | 14.5
Cc1ccc(C(=O)Nc2cc(Cl)ccc2-n2cncn2)o1 | -8.27

SMILES | hERG current change (%, negative = inhibition) at 1uM [%]
CCc1cc(C(N)=S)ccn1 | 9.04
CC(C)(C)c1ccc(C(=O)NCc2nnc(SCC(=O)NCc3ccco3)o2)cc1 | 11.1
Cc1c(NC(=O)c2cccnc2Cl)c(=O)n(-c2ccccc2)n1C | 11.3
NC(=O)c1ccccc1NC(=O)/C=C/c1cccc(Cl)c1 | -11.7
CCN(CC)C(=O)c1sc(NC(=O)c2ccc3c(c2)OCO3)c(C(N)=O)c1C | 10.6
CCOc1ccc(N2CC(C(=O)Nc3ccccc3OC)CC2=O)cc1 (stereo not drawn) | 7.93
CCCCNC(=O)C1CCC(CNc2nc(=S)[nH]c3ccccc23)CC1 (stereo not drawn) | 8.87
Cc1ccc(Cn2nnc3c(=O)[nH]c(C4CCCN(C(=O)Nc5ccc(F)cc5)C4)nc32)cc1 (stereo not drawn) | 1.7
CCC(Sc1ccc(C(=O)O)cc1)C(=O)O (stereo not drawn) | 15.3
O=C1CCCC2=C1C(c1ccc(O)c(O)c1)Nc1ccc3ncccc3c12 (stereo not drawn) | 15.4
CN(CCNC(=O)C1CCC(=O)N(Cc2ccc(Cl)cc2)C1)CCc1ccccc1 (stereo not drawn) | -50.5
CCOC(=O)c1c(C)[nH]c(C(=O)NNC(=O)c2ccc(Br)cc2)c1C | -3.62
COc1ccc(NC(=O)COc2cc(O)c3c(c2)OC(C)(C)CC3=O)cc1 | -1.52
O=C(CCN1C(=O)S/C(=C/c2ccc(F)cc2)C1=O)Nc1ccc(O)c(C(=O)O)c1 | 13
COc1ccc(NC(=O)NNC(=O)COc2ccc(Cl)cc2C)cc1OC | 6.09
Cc1cccc(NC(=O)C2CCCN2/C=C/C(=O)C(F)(F)F)c1C (stereo not drawn) | 3.39
CC12CCC(=O)N1C(C(=O)Nc1nc(-c3ccccc3)cs1)CS2 (stereo not drawn) | 13.4
CC1CN(C(=O)/C=C/c2ccc([N+](=O)[O-])s2)CC(C)O1 (stereo not drawn) | -24.7
CCc1ccccc1NC(=O)C1NC(=O)CC1c1ccccc1 (stereo not drawn) | 1.61

SMILES | hERG current change (%, negative = inhibition) at 1uM [%]
Cc1ccc2nc(-c3cccc(NC(=O)c4ccc5c(c4)OCCO5)c3)oc2c1 | 7.4
Cn1nc(-c2ccccc2)cc1NC(=O)CCCC(=O)O | 16.4
Cn1/c(=N/NC(=O)c2ccccc2Br)sc2ccccc21 | 12.8
C/C(=N\N1C(C)CCCC1C)c1ccccc1O (stereo not drawn) | 7.51
O=C(Nc1cc(-c2ccccc2)[nH]n1)c1ccc(Cl)cc1 | 3.64
COc1ccccc1C(=O)COC(=O)/C=C/c1ccccc1 | 2.69
Cc1c(C#N)c2ncn(Cc3ccccn3)c(=O)c2n1-c1ccccc1 | -0.997
COC(=O)C1=C(C)N(Cc2ccc(OC)cc2)C(=O)C1 | 16.1
O=C(c1ccccc1)c1ccccc1NC(=O)C1CCCN1Cc1ccccc1 (stereo not drawn) | 15.1
CC(=O)N1CCN(S(=O)(=O)c2ccc(S(=O)(=O)NC3CC3)cc2)CC1 | -2.23
CCOc1ccc(NC(=S)NC(=O)c2c(Cl)c(C)nn2C)c([N+](=O)[O-])c1 | 6.94
CC1(C)COCN1S(=O)(=O)c1ccc(C(=O)Nc2nnc(-c3ccc(Cl)s3)o2)cc1 | 5.31
O=S(=O)(c1ccccc1)c1ccc(NCc2ccco2)cc1 | -5.31
COc1ccc(C(=O)NCC(c2ccco2)N2CCc3ccccc32)cc1 (stereo not drawn) | -0.333
CC1Cc2ccccc2N1C(=O)CSc1nc(-c2ccccc2)cs1 (stereo not drawn) | 11.8
COc1ccc(N2CS(=O)(=O)/C(=C/N(C)C)C2=O)cc1 | -1.63
Cc1ccc(-c2[nH]nc3c2C(c2ccsc2)C(C#N)=C(N)O3)cc1 (stereo not drawn) | -12.5
O=C(O)CSC1=NC(=Nc2ccc(Cl)cc2)C2(CCCCC2)N1c1cccc(C(=O)O)c1 | 6.13
Cc1ccc(C)c(NC(=O)COC(=O)c2ccc(S(=O)(=O)N3CCCCC3)cc2)c1 | -1.78
